Data from patent US20110212100A1, “METHODS FOR MODULATING DEVELOPMENT AND EXPANSION OF IL-17 EXPRESSING CELLS” (priority 2007, published 2011).

System: Xbp-1 splicing / eIF2α phosphorylation in activated T cells
Assay: Stress response pathway delineation (western blot, Xbp-1 splicing assay)
Conditions: 4 hours; 10 nM HF or 1 μg/ml tunicamycin
Protocol: FIG. 13A is an illustration depicting analysis of CD4^+ CD25^− T cells that were left unstimulated (TN), or were activated through the TCR for 4 hours in complete medium (complete—200 μM Cys/100 μM Met), medium lacking Cyst Met (Cys/Met) or complete medium containing 1 μg/ml tunicamycin, 10 nM HF or 10 nM MAZ1310. Western blotting was performed on whole cell extracts with the indicated antibodies. Xbp-1 splicing assay was performed on cDNA synthesized from T cell cultures.
A variety of other cellular stresses (ER stress, oxidative stress, viral infection) also result in eIF2α phosphorylation and ATF4 translation, a phenomenon termed the integrated stress response (ISR). (Harding, H. P. et al. An integrated stress response regulates amino acid metabolism and resistance to oxidative stress. Mol Cell 11, 619-33 (2003); and Harding, H. P. et al. Regulated translation initiation controls stress-induced gene expression in mammalian cells. Mol Cell 6, 1099-108 (2000)). Individual stressors, however, can also activate stress type-specific pathways. […]

Compound	eIF2α phosphorylation, ATF4 expression and Xbp-1 splicing, in words
O=C(CC1NCCCC1O)Cn1cnc2cc(Br)c(Cl)cc2c1=O (racemic) [HF, 7-bromo-6-chloro-3-[3-(3-hydroxy-2-piperidinyl)-2-oxopropyl]-4(3H)-quinazolinone]	inducing eIF2α phosphorylation without promoting Xbp-1 splicing
tunicamycin	induced eIF2α phosphorylation and ATF4 expression together with Xbp-1 splicing
